Test results published in ChEMBL document CHEMBL3526124, “Optimized experimental design for the estimation of enzyme kinetic parameters: an experimental evaluation” (Drug Metab Dispos, 2012).

Columns and labels:
not read = substrate: CN(C)CCCN1c2ccccc2CCc2ccccc21; assay: not read
[1] = substrate: COc1ccc([C@@H]2Sc3ccccc3N(CCN(C)C)C(=O)[C@@H]2OC(C)=O)cc1; assay: Drug metabolism in assessed as human CYP3A4-mediated metabolism; format: ADME

B1: Cytochrome P450 3A4 (Homo sapiens) (protein)
chain: MALIPDLAMETWLLLAVSLVLLYLYGTHSHGLFKKLGIPGPTPLPFLGNILSYHKGFCMFDMECHKKYGKVWGFYDGQQPVLAITDPDMIKTVLVKECYSVFTNRRPFGPVGFMKSAISIAEDEEWKRLRSLLSPTFTSGKLKEMVPIIAQYGDVLVRNLRREAETGKPVTLKDVFGAYSMDVITSTSFGVNIDSLNNPQDPFVENTKKLLRFDFLDPFFLSITVFPFLIPILEVLNICVFPREVTNFLRKSVKRMKESRLEDTQKHRVDFLQLMIDSQNSKETESHKALSDLELVAQSIIFIFAGYETTSSVLSFIMYELATHPDVQQKLQEEIDAVLPNKAPPTYDTVLQMEYLDMVVNETLRLFPIAMRLERVCKKDVEINGMFIPKGVVVMIPSYALHRDPKYWTEPEKFLPERFSKKNKDNIDPYIYTPFGSGPRNCIGMRFALMNMKLALIRVLQNFSFKPCKETQIPLKLSLGGLLQPEKPVVLKVESRDGTVSGA
B1 was tested, and the Km (not read) was 5 µM, the Vmax (not read) was 0.000117 µmol/min and the Km [1] was 23 µM. The Vmax [1] was 0.00188 µmol/min.
